Sequences and labels used below:
T1: RBFOX1 RRM RbFoxmut (Fox-RRM*) (Homo sapiens, UniProt Q9NWB1 109-208, R118D;E147R;N151S;E152T)
T1 sequence: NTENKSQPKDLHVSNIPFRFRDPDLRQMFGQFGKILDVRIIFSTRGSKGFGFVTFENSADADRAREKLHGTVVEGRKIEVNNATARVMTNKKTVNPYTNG

B1: UAAGGUG (DNA:RNA)
RNA: GGGAGACCGGAAUUCAGAUUGUCCUAAGGUGUUAAAUCCCGUCGUAGCCACCA
DNA 1: CAATCTGAATTCCGGTCTCCC
DNA 2: TGGTGGCTACGACGGGATT
B2: UGAUAGC (DNA:RNA)
RNA: B1 RNA with A26G, G28U, G29A, U30G, G31C
DNA 1: CAATCTGAATTCCGGTCTCCC
DNA 2: TGGTGGCTACGACGGGATT
B3: GGCGACA (DNA:RNA)
RNA: B1 RNA with U25G, A26G, A27C, G29A, U30C, G31A
DNA 1: CAATCTGAATTCCGGTCTCCC
DNA 2: TGGTGGCTACGACGGGATT
B4: CCGCUUG (DNA:RNA)
RNA: B1 RNA with U25C, A26C, A27G, G28C, G29U
DNA 1: CAATCTGAATTCCGGTCTCCC
DNA 2: TGGTGGCTACGACGGGATT
B5: AGACCAC (DNA:RNA)
RNA: B1 RNA with U25A, A26G, G28C, G29C, U30A, G31C
DNA 1: CAATCTGAATTCCGGTCTCCC
DNA 2: TGGTGGCTACGACGGGATT
B6: UGGGACG (DNA:RNA)
RNA: B1 RNA with A26G, A27G, G29A, U30C
DNA 1: CAATCTGAATTCCGGTCTCCC
DNA 2: TGGTGGCTACGACGGGATT
B7: AGAGGUC (DNA:RNA)
RNA: B1 RNA with U25A, A26G, G31C
DNA 1: CAATCTGAATTCCGGTCTCCC
DNA 2: TGGTGGCTACGACGGGATT
B8: CGAAUCC (DNA:RNA)
RNA: B1 RNA with U25C, A26G, G28A, G29U, U30C, G31C
DNA 1: CAATCTGAATTCCGGTCTCCC
DNA 2: TGGTGGCTACGACGGGATT
B9: CUAUUGC (DNA:RNA)
RNA: B1 RNA with U25C, A26U, G28U, G29U, U30G, G31C
DNA 1: CAATCTGAATTCCGGTCTCCC
DNA 2: TGGTGGCTACGACGGGATT
B10: AGGUGGC (DNA:RNA)
RNA: B1 RNA with U25A, A26G, A27G, G28U, U30G, G31C
DNA 1: CAATCTGAATTCCGGTCTCCC
DNA 2: TGGTGGCTACGACGGGATT
B11: CUCUCUC (DNA:RNA)
RNA: B1 RNA with U25C, A26U, A27C, G28U, G29C, G31C
DNA 1: CAATCTGAATTCCGGTCTCCC
DNA 2: TGGTGGCTACGACGGGATT
B12: UAUUCUC (DNA:RNA)
RNA: B1 RNA with A27U, G28U, G29C, G31C
DNA 1: CAATCTGAATTCCGGTCTCCC
DNA 2: TGGTGGCTACGACGGGATT
B13: AGAAUUG (DNA:RNA)
RNA: B1 RNA with U25A, A26G, G28A, G29U
DNA 1: CAATCTGAATTCCGGTCTCCC
DNA 2: TGGTGGCTACGACGGGATT
B14: GAGGCAC (DNA:RNA)
RNA: B1 RNA with U25G, A27G, G29C, U30A, G31C
DNA 1: CAATCTGAATTCCGGTCTCCC
DNA 2: TGGTGGCTACGACGGGATT
B15: GGAUAAA (DNA:RNA)
RNA: B1 RNA with U25G, A26G, G28U, G29A, U30A, G31A
DNA 1: CAATCTGAATTCCGGTCTCCC
DNA 2: TGGTGGCTACGACGGGATT
B16: CGCAAAA (DNA:RNA)
RNA: GGGAGACCGGAAUUCAGAUUGUCCCGCAAAAUUAAAUCCCGUCGUAGCCACCA
DNA 1: CAATCTGAATTCCGGTCTCCC
DNA 2: TGGTGGCTACGACGGGATT
B17: ACACGAU (DNA:RNA)
RNA: B1 RNA with U25A, A26C, G28C, U30A, G31U
DNA 1: CAATCTGAATTCCGGTCTCCC
DNA 2: TGGTGGCTACGACGGGATT
B18: ACGAUCC (DNA:RNA)
RNA: B16 RNA with C25A, G26C, C27G, A29U, A30C, A31C
DNA 1: CAATCTGAATTCCGGTCTCCC
DNA 2: TGGTGGCTACGACGGGATT
B19: GUUUAGC (DNA:RNA)
RNA: B16 RNA with C25G, G26U, C27U, A28U, A30G, A31C
DNA 1: CAATCTGAATTCCGGTCTCCC
DNA 2: TGGTGGCTACGACGGGATT
B20: GAUGAAU (DNA:RNA)
RNA: B16 RNA with C25G, G26A, C27U, A28G, A31U
DNA 1: CAATCTGAATTCCGGTCTCCC
DNA 2: TGGTGGCTACGACGGGATT
B21: ACUGAGC (DNA:RNA)
RNA: B16 RNA with C25A, G26C, C27U, A28G, A30G, A31C
DNA 1: CAATCTGAATTCCGGTCTCCC
DNA 2: TGGTGGCTACGACGGGATT
B22: UUGGGCA (DNA:RNA)
RNA: B1 RNA with A26U, A27G, U30C, G31A
DNA 1: CAATCTGAATTCCGGTCTCCC
DNA 2: TGGTGGCTACGACGGGATT
B23: UCGACCC (DNA:RNA)
RNA: B16 RNA with C25U, G26C, C27G, A29C, A30C, A31C
DNA 1: CAATCTGAATTCCGGTCTCCC
DNA 2: TGGTGGCTACGACGGGATT
B24: UCACGAU (DNA:RNA)
RNA: B1 RNA with A26C, G28C, U30A, G31U
DNA 1: CAATCTGAATTCCGGTCTCCC
DNA 2: TGGTGGCTACGACGGGATT
B25: GAUCUGG (DNA:RNA)
RNA: B1 RNA with U25G, A27U, G28C, G29U, U30G
DNA 1: CAATCTGAATTCCGGTCTCCC
DNA 2: TGGTGGCTACGACGGGATT
B26: AGUGGCA (DNA:RNA)
RNA: B16 RNA with C25A, C27U, A28G, A29G, A30C
DNA 1: CAATCTGAATTCCGGTCTCCC
DNA 2: TGGTGGCTACGACGGGATT
B27: GUGAGGA (DNA:RNA)
RNA: B16 RNA with C25G, G26U, C27G, A29G, A30G
DNA 1: CAATCTGAATTCCGGTCTCCC
DNA 2: TGGTGGCTACGACGGGATT
B28: UGGUGAG (DNA:RNA)
RNA: B1 RNA with A26G, A27G, G28U, U30A
DNA 1: CAATCTGAATTCCGGTCTCCC
DNA 2: TGGTGGCTACGACGGGATT
B29: UCGCGGC (DNA:RNA)
RNA: B1 RNA with A26C, A27G, G28C, U30G, G31C
DNA 1: CAATCTGAATTCCGGTCTCCC
DNA 2: TGGTGGCTACGACGGGATT
B30: GUUAAAG (DNA:RNA)
RNA: B16 RNA with C25G, G26U, C27U, A31G
DNA 1: CAATCTGAATTCCGGTCTCCC
DNA 2: TGGTGGCTACGACGGGATT
B31: UAGACGU (DNA:RNA)
RNA: B1 RNA with A27G, G28A, G29C, U30G, G31U
DNA 1: CAATCTGAATTCCGGTCTCCC
DNA 2: TGGTGGCTACGACGGGATT

Changes are numbered by the printed parent chain; changes in the protein carry UniProt numbers. The list shows a part of the results.

Here are results for 31 molecules from article PMC9911399, “Two distinct binding modes provide the RNA-binding protein RbFox with extraordinary sequence specificity”.

The target of this experiment is T1, RBFOX1 RRM RbFoxmut (Fox-RRM*). The experiment can be described thus: EMSA; HiTS-Eq, 1 nM pool, 10 min; buffer printed only for the single-RNA assays: 10 mM Tris pH 7.5, 150 mM NaCl, 3.4 mM EDTA, 0.001% NP-40, 30 C. Particulars: tags: His6 N-terminal (pET28a); label: 5' 32P. In a few lines:
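Relative association constants, normalised to the cognate motif, were derived by comparing read counts of each RNA species with those of the control reaction. The RNA sequenced was the free fraction, separated by 8% native PAGE after a 10 min equilibration in 50 µL of 1 nM 5′-radiolabelled RNA (7 randomized nucleotides) with increasing concentrations of purified wild-type or mutant RbFox RRM.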
For the molecule B1, the binding signal is 0.0953 KA relative to UGCAUGU.
For the molecule B2, the binding signal is 0.0858 KA relative to UGCAUGU.
For B3 the value was 0.0827 KA relative to UGCAUGU.
For B4 the value was 0.261 KA relative to UGCAUGU; for B5, 0.0728 KA relative to UGCAUGU.
In the case of B6 it was 0.107 KA relative to UGCAUGU; in that of B7, 0.108 KA relative to UGCAUGU; in that of B8, 0.235 KA relative to UGCAUGU.
Regarding B9, the binding signal is 0.125 KA relative to UGCAUGU.
B10: the binding signal is 0.135 KA relative to UGCAUGU.
In the case of B11 it was 0.0481 KA relative to UGCAUGU; in that of B12, 0.0952 KA relative to UGCAUGU; in that of B13, 0.129 KA relative to UGCAUGU.
In the case of B14 it was 0.0688 KA relative to UGCAUGU; in that of B15, 0.086 KA relative to UGCAUGU; in that of B16, 0.0997 KA relative to UGCAUGU.
Turning to B17, the binding signal is 0.0623 KA relative to UGCAUGU.
For the molecule B18, the binding signal is 0.0727 KA relative to UGCAUGU.
For B19 the value was 0.114 KA relative to UGCAUGU; for B20, 0.0674 KA relative to UGCAUGU; for B21, 0.0856 KA relative to UGCAUGU.
For B22 the value was 0.0791 KA relative to UGCAUGU; for B23, 0.0544 KA relative to UGCAUGU.
In the case of B24, the binding signal is 0.0725 KA relative to UGCAUGU.
With B25, the binding signal is 0.0866 KA relative to UGCAUGU.
In the case of B26 it was 0.144 KA relative to UGCAUGU; in that of B27, 0.0646 KA relative to UGCAUGU.
For B28 the value was 0.128 KA relative to UGCAUGU; for B29, 0.0965 KA relative to UGCAUGU.
Consider B30, for which the binding signal is 0.0986 KA relative to UGCAUGU.
Consider B31, for which the binding signal is 0.064 KA relative to UGCAUGU.
